Reference: PubChem BioAssay AID540317 (National Center for Advancing Translational Sciences (NCATS), 2011)
Out of some 390,000 compounds screened, about 2,200 (0.56%) were called active. The shares of active, inactive and inconclusive entries below differ from those in the screen. The call rests on the fitted dose curve; in most records, active means well fitted inhibition curve with a large enough effect; inconclusive means small, poorly fitted or top-dose-only effect; inactive means no such curve, though single readings can be large or run the other way. Potencies of inconclusive entries are doubtful fits and often do not repeat.

Target: Chromobox protein homolog 1 (Homo sapiens) (UniProt P83916)
UniProt P83916, sequence (P83916 whole entry, looked up): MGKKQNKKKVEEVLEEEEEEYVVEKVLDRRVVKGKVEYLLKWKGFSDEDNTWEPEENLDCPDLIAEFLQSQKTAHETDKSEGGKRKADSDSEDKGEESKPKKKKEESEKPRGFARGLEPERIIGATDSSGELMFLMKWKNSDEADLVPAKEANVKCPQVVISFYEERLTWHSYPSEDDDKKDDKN
Test: HTS for Inhibitors of HP1-beta Chromodomain Interactions with Methylated Histone Tails; further: nearly all actives have a fitted effect of over 70% in size
Details: AlphaScreen HP1-beta / biotin-H3K9me3 peptide binding; series mostly up to 114 µM; activity change, negative = inhibition: at the top concentration
How it was run: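 Compound inhibition of the preformed complex between 50 nM HP1-beta and 50 nM biotinylated H3K9me3 peptide was read by AlphaScreen. Buffer was PBS pH 7.4 with 0.01% Tween-20. Incubations ran 30 min at room temperature, with 10 ug/mL donor/acceptor beads.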
Potency means the concentration at half of the fitted maximal effect; tags describe the fitted curve by direction and shape.

| Structure (SMILES) | activity change, negative = inhibition | Potency |
| --- | --- | --- |
| COc1cccc(NC(=O)CN(C)C(=O)CCN2C(=O)C3CC=CCC3C2=O)c1 (configuration not stated) | inactive: 12.1% |  |
| CCCn1c(=O)c(C(=O)NNC(=O)c2ccccc2Cl)c(O)c2ccccc21 | inactive: 38.1% |  |
| O=C1c2ccc([N+](=O)[O-])cc2S(=O)(=O)N1Cc1ccccc1 |  | inconclusive: 39.8 µM [inhibitor, partial curve] |
| COc1ccc(/C=C2/SC(=S)N(CCCC(=O)Nc3cccc(O)c3)C2=O)cc1 |  | inconclusive: 39.8 µM [inhibitor, partial curve, poor fit] |
| CCC(=O)NC(=S)Nc1ccccc1OC |  | inconclusive: 25.1 µM [inhibitor, full curve] |
| COc1cc(/C=C2\SC(=S)N(Nc3ccccc3)C2=O)cc(OC)c1OC |  | inconclusive: 15.8 µM [inhibitor, partial curve, poor fit] |
| N#Cc1ccccc1S(=O)(=O)N1CCN(C(=O)C2COc3ccccc3O2)CC1 (configuration not stated) |  | inconclusive: 17.8 µM [inhibitor, partial curve, poor fit] |
| C/C=C/C=C\C(=O)Nc1cccc(C2=NOC3(C2)C[C@H](C(N)=O)N(C(=O)/C=C/C)C3)c1 (some centres not stated) |  | inconclusive: 50.1 µM [inhibitor, partial curve] |
| CCN(CC)C(=O)Cn1c(=O)n(-c2ccc(Cl)cc2)c(=O)c2c3c(sc21)CCCCC3 | inactive: 23% |  |
| O=[N+]([O-])c1ccc(Sc2cccc[n+]2[O-])c2nonc12 |  | active: 7.94 µM |
| COc1ccc(C(=O)N2CCN(Cc3ccccc3C(F)(F)F)CC2)cc1 |  | inconclusive: 17.8 µM [inhibitor, full curve] |
| Cc1ncc(CO)c(/C=N/NC(=S)Nc2ccc(Cl)c(Cl)c2)c1O |  | inconclusive: 12.6 µM [inhibitor, full curve] |
| Clc1ccc(OCCCCN2CCCCC2)cc1 |  | inconclusive: 56.2 µM [inhibitor, partial curve, poor fit] |
| O=C(O)c1ccc(N/N=C/c2cccc(C(F)(F)F)c2)cc1 | inactive: -5.88% |  |
| CC(O)CNCCCOc1ccc(Cl)cc1C(C)(C)C (configuration not stated) |  | inconclusive: 56.2 µM [inhibitor, partial curve, poor fit] |
| COc1ccc(C(=O)COC(=O)c2ccc([N+](=O)[O-])s2)cc1OC |  | inconclusive: 25.1 µM [inhibitor, single point] |
| CCOC(=O)c1ccc(Nc2ncccc2[N+](=O)[O-])cc1 |  | inconclusive: 56.2 µM [inhibitor, single point] |
| CCOC(=O)c1nc(NCc2ccccc2)sc1C |  | inconclusive: 56.2 µM [inhibitor, partial curve, poor fit] |
| O=C(Nc1cc(S(=O)(=O)Nc2ccc(Cl)cc2)ccc1N1CCCCC1)c1ccc(F)cc1 |  | inconclusive: 10 µM [inhibitor, partial curve, poor fit] |
| COc1ccc(/C=C(\C#N)C(=O)NCc2ccccc2)cc1O | inactive: 9.91% |  |
| CCC12CN3CC(CC)(CN(C1)C3c1c[nH]c3ccccc13)C2=O (configuration not stated) | inactive: -1.39% |  |
| CCOC(=O)N1CCN(C(=O)C2CCN(Cc3cccc(OCc4ccccc4)c3)CC2)CC1 |  | inconclusive: 14.1 µM [inhibitor, partial curve, poor fit] |
| Cc1nc(N2CCN(c3ccccc3O)CC2)c2c(-c3ccccc3)csc2n1 |  | inconclusive: 31.6 µM [inhibitor, partial curve, poor fit] |

| Structure (SMILES) | activity change, negative = inhibition | Potency |
| --- | --- | --- |
| COc1cccc(/C=C2\SC(=S)N(N3CCOCC3)C2=O)c1OC |  | inconclusive: 17.8 µM [inhibitor, full curve, poor fit] |
| COc1cc(N=Nc2ccc3ccccc3c2)ccc1O |  | inconclusive: 28.2 µM [inhibitor, partial curve] |
| Cc1ccc(C(=O)C(C(=O)/C=C/c2ccccc2)=C2SCCCS2)cc1 |  | inconclusive: 5.01 µM [inhibitor, full curve, poor fit] |
| CC1(C)Cc2[nH]c(=S)c(C#N)cc2CO1 | inactive: -19.1% |  |
| OCc1ccccc1OCCCN1CCC(Cc2ccccc2)CC1 |  | inconclusive: 44.7 µM [inhibitor, partial curve, poor fit] |
| c1nc(SSc2ncnc3nc[nH]c23)c2[nH]cnc2n1 |  | inconclusive: 5.01 µM [inhibitor, full curve, poor fit] |
| COc1ccc(Nc2cc(C(=O)NCCCN(C)Cc3ccccc3)c3ccccc3n2)c(OC)c1 |  | inconclusive: 50.1 µM [inhibitor, partial curve] |
| COc1cc(-c2nc3ccccn3c2Nc2ccccc2C)ccc1O |  | inconclusive: 39.8 µM [inhibitor, partial curve, poor fit] |
| COc1cccc(CNC(=O)CCN2C(=O)[C@@H]3Cc4ccccc4CN3C2=O)c1 |  | inconclusive: 39.8 µM [inhibitor, single point] |
| CS(=O)(=O)N1CCC(C(=O)NCc2ccc(F)cc2Cl)CC1 | inactive: 52.4% |  |
| CCN(CC)c1ccc(/C=N/OCC(=O)N2CCCc3ccccc32)cc1 |  | inconclusive: 50.1 µM [inhibitor, partial curve] |
| C(=C\c1ccccc1)/CN1CCN(Cc2ccc3c(c2)OCO3)CC1 |  | inconclusive: 39.8 µM [inhibitor, partial curve] |
| CC1Cc2ccccc2N1C(=O)COC(=O)c1c2c(nc3ccccc13)CCCCC2 (configuration not stated) |  | inconclusive: 39.8 µM [inhibitor, single point] |
| COC(=O)c1ccc(NC(=O)c2cc[n+]([O-])cc2)cc1 | inactive: 69.7% |  |
| COc1ccc(NC(=O)C(=O)NCCc2sc(-c3ccc(Cl)cc3)nc2C)cc1 | inactive: 30.7% |  |
| CCOC(=O)c1cc(-c2ccccc2)nc2c(O)cccc12 | inactive: 8.38% |  |
| COc1ccc(OC)c(NC(=O)CCNS(=O)(=O)c2cccc3nsnc23)c1 |  | inactive |
| COc1ccc(Nc2c3c(nc4ccccc24)CCCC3)cc1OC |  | inconclusive: 70.8 µM [inhibitor, partial curve, poor fit] |
| Nc1ccc(N)c(C(=O)O)c1 |  | active: 3.16 µM |
| O=C(CCC1N=C2c3ccccc3N=C(SCC(=O)Nc3ccccc3F)N2C1=O)NCc1ccco1 (configuration not stated) | inactive: 19.3% |  |
| CC(Nc1cc(N2CCCC2)ccc1[N+](=O)[O-])c1ccccc1 (configuration not stated) |  | inconclusive: 12.6 µM [inhibitor, full curve] |
| Cc1c(NC(=O)CN2CCN(c3ccc(O)cc3)CC2)c(=O)n(-c2ccccc2)n1C |  | inconclusive: 89.1 µM [inhibitor, single point] |
| COc1ccc(NC(=O)CC(C)NCCCN2CCCC2=O)cc1 (configuration not stated) |  | inconclusive: 50.1 µM [inhibitor, single point] |

| Structure (SMILES) | activity change, negative = inhibition | Potency |
| --- | --- | --- |
| CC(C)(C)C(=O)Nc1ccc(-c2nc3ccccc3s2)cc1 | inactive: 30% |  |
| Cn1c(Cc2ccccc2)nnc1SCC(=O)Nc1ccccc1 | inactive: 13.8% |  |
| COc1ccc(C(=O)/C(C#N)=N/Nc2ccc([N+](=O)[O-])cc2)cc1 |  | inconclusive: 3.55 µM [inhibitor, partial curve, poor fit] |
| Cc1ccc(C)c(N2CCN(C(=O)c3ccc(N4CCOCC4)c([N+](=O)[O-])c3)CC2)c1 |  | active: 44.7 µM |
| CCCCCC(=O)Nc1nc(C)c(-c2csc(Nc3cc(OC)ccc3OC)n2)s1 |  | inconclusive: 28.2 µM [inhibitor, partial curve] |
| O=C(Nc1ccc2c(c1)OCO2)c1ccc(NC2CC2)c([N+](=O)[O-])c1 |  | inconclusive: 22.4 µM [inhibitor, single point] |
| O=C(NC(=S)Nc1cc(S(=O)(=O)N2CCOCC2)ccc1O)c1ccco1 |  | inconclusive: 20 µM [inhibitor, partial curve, poor fit] |
| Cc1cc(NC(=O)CN2C(=O)/C(=C/c3ccccc3F)SC2=S)no1 |  | inconclusive: 89.1 µM [inhibitor, single point] |
| CCC(C)NCCOCCOc1cc(C)c(Cl)c(C)c1 (configuration not stated) |  | inconclusive: 8.91 µM [inhibitor, full curve] |
| COc1ccc(-n2c(SCC(=O)Nc3nccs3)nnc2-c2ccoc2C)cc1 |  | inconclusive: 89.1 µM [inhibitor, partial curve, poor fit] |
| COCCCNCCCCOc1ccc(OCc2ccccc2)cc1 |  | inconclusive: 28.2 µM [inhibitor, partial curve] |
| Cc1ccccc1NC(=O)CSc1ccsc1[N+](=O)[O-] |  | inconclusive: 50.1 µM [inhibitor, partial curve, poor fit] |
| COc1cc(C(C(=O)NC2CCCCC2)N(C(=O)Cc2c[nH]c3ccccc23)c2ccc(C)cc2)cc(OC)c1OC (configuration not stated) |  | inconclusive: 39.8 µM [inhibitor, single point] |
| CCc1cc(C(=O)c2ccc(C)cc2)c(NC(=O)CCl)s1 | inactive: 18.5% |  |
| CC1CCN(c2ccc(-c3nc(-c4ccccc4)no3)cc2[N+](=O)[O-])CC1 |  | inconclusive: 12.6 µM [inhibitor, full curve] |
| COc1ccc(NC(=O)C2CCN(C(=O)c3ccc(OC)cc3)CC2)cc1 |  | inconclusive: 8.91 µM [inhibitor, single point] |
| Cn1c(=O)c2c([nH]c(=S)n2Cc2ccc(Cl)cc2)n(C)c1=O |  | inconclusive: 14.1 µM [inhibitor, full curve] |
| CCOC(=O)c1sc(NC(=O)CSc2nnc(-c3ccc(OC)cc3)n2CCOC)nc1C |  | inconclusive: 89.1 µM [inhibitor, single point] |
| COc1ccc(OC)c(C(=O)c2coc3cc(Br)c(O)c(Br)c23)c1 |  | inconclusive: 79.4 µM [inhibitor, single point] |
| Oc1ccc(NCc2cccs2)cc1 |  | inconclusive: 79.4 µM [inhibitor, single point] |
| COc1ccc(-c2sc(N)nc2-c2ccccc2)cc1 |  | inconclusive: 56.2 µM [inhibitor, single point] |
